Assay results: PubChem BioAssay AID206 (DTP/NCI, 2004)
Results filed as inconclusive are left out. Some entries of the source have several records that differ or are many. The other results are left out here. There may be further records. The values listed for one entry are repeats across runs, samples, wells, individuals or studies.

Test system: nude mice, HT29 intrarenal xenograft, tumor weight T/C
Assay: NCI In Vivo Anticancer Drug Screen. Data for tumor model HT29;CX-1 Human Adenocarcinoma (MER+) (intrarenal inoculation) in NU/NU Swiss (nude) mice
Conditions: endpoint: mean tumor weight change, higher = larger tumour
Method in brief: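 T/C = treated-group value ÷ vehicle-group value, using tumor size or survival.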

[1] = dose: 100.0 mg/kg/injection, schedule: Q04DX004 (sc), vehicle: Klucel (hydroxypropylcellulose) (HPC)

**Q.** How did the T/C (dose: 0.25 mg/kg/injection, schedule: Q01DX010 (sc), vehicle: saline) turn out when COC1=C(N)C(=O)c2nc(-c3nc(C(=O)O)c(C)c(-c4ccc(OC)c(OC)c4O)c3N)ccc2C1=O was run?
**A.** -50 % of control and 10 % of control

**Q.** How did the T/C (dose: 800.0 mg/kg/injection, schedule: Q01DX010 (sc), vehicle: Klucel (hydroxypropylcellulose) (HPC)) turn out when COC1C(O)C(C)OC(OC2C(Oc3cccc4c(O)c5c(=O)oc6ccc(C)c7c(=O)oc(c34)c5c67)OC(C)C(O)C2O)C1O (centres undefined) was run?
**A.** 17 % of control and 53 % of control

**Q.** What does the source list for O=C(O)C(CSC(c1ccccc1)(c1ccccc1)c1ccccc1)N=Cc1cccs1 (centres undefined)?
**A.** T/C (dose: 100.0 mg/kg/injection, schedule: Q04DX004 (sc), vehicle: suspension in saline): 11 % of control and 104 % of control; T/C (dose: 400.0 mg/kg/injection, schedule: Q04DX004 (sc), vehicle: suspension in saline): 40 % of control and 78 % of control

**Q.** Which results are given for CCOC(=O)C(CC(C)C)NC(=O)C(Cc1ccc(N(CCCl)CCCl)cc1)NC(C)=O (centres undefined)?
**A.** T/C (dose: 25.0 mg/kg/injection, schedule: Q01DX010 (sc), vehicle: saline with Tween-80): 75 % of control, 77 % of control, 108 % of control; T/C (dose: 400.0 mg/kg/injection, schedule: Q01DX010 (sc), vehicle: saline with Tween-80): 25 % of control and 81 % of control

**Q.** For CC(C)CCCCCCCCCCCCC(=O)NCC(=O)NC1C(C)OC(Nc2ncnc3nc[nH]c23)C(O)C1O (centres undefined), which T/C (dose: 4.0 mg/kg/injection, schedule: Q01DX010 (sc), vehicle: distilled water + Tween-80) is on record?
**A.** -51 % of control and 18 % of control

**Q.** What about the T/C (dose: 4.0 mg/kg/injection, schedule: Q01DX010 (sc), vehicle: saline with Tween-80) of the same compound?
**A.** -52 % of control and -12 % of control

**Q.** For COC12C(COC(N)=O)C3=C(C(=O)C(C)=C(N)C3=O)N1CC1C2N1C (centres undefined), which T/C (dose: 8.0 mg/kg/injection, schedule: Q01DX010 (sc), vehicle: saline) is on record?
**A.** -63 % of control and -34 % of control

**Q.** With CO[C@@]12[C@H](COC(N)=O)C3=C(C(=O)C(C)=C(N)C3=O)N1C[C@@H]1N[C@@H]12 as the compound, how does the T/C (dose: 1.25 mg/kg/injection, schedule: Q04DX004 (sc), vehicle: saline) read?
**A.** 53 % of control and 108 % of control

**Q.** And the T/C (dose: 2.5 mg/kg/injection, schedule: Q04DX004 (sc), vehicle: saline)?
**A.** -37 % of control and 11 % of control

**Q.** For CC(C)[NH-].CC(C)[NH-].O.O.[Cl][Pt+2][Cl], which T/C (dose: 25.0 mg/kg/injection, schedule: Q01DX010 (sc), vehicle: dextrose) is on record?
**A.** -56 % of control and -14 % of control

**Q.** COc1cc2cc(c1Cl)N(C)C(=O)CC(OC(=O)C(C)C)C1(C)OC1C(C)C1CC(O)(NC(=O)O1)C(OC)/C=C/C=C(C)C2 (centres undefined) was tested. Which T/C (dose: 62.5 micrograms/kg/injection, schedule: Q04DX004 (sc), vehicle: saline + alcohol) did it give?
**A.** 59 % of control, 66 % of control, 156 % of control

**Q.** And the T/C (dose: 125.0 micrograms/kg/injection, schedule: Q04DX004 (sc), vehicle: saline + alcohol)?
**A.** 42 % of control and 79 % of control

**Q.** And the T/C (dose: 250.0 micrograms/kg/injection, schedule: Q04DX004 (sc), vehicle: saline + alcohol)?
**A.** 4 % of control, 38 % of control, 44 % of control

**Q.** Which results are given for O=C1c2c(O)ccc(O)c2C(=O)c2c(NCCNCCO)ccc(NCCNCCO)c21?
**A.** T/C (dose: 0.5 mg/kg/injection, schedule: Q01DX010 (sc), vehicle: acid diluted with saline): 55 % of control and 161 % of control; T/C (dose: 1.0 mg/kg/injection, schedule: Q01DX010 (sc), vehicle: acid diluted with saline): 46 % of control and 82 % of control; T/C (dose: 2.0 mg/kg/injection, schedule: Q01DX010 (sc), vehicle: acid diluted with saline): 17 % of control, 71 % of control, 112 % of control

**Q.** Oc1ccccc1C=NCCC[N-]CCCN=Cc1ccccc1O.[Co] was tested. Which T/C (dose: 50.0 mg/kg/injection, schedule: Q01DX010 (sc), vehicle: suspension in saline) did it give?
**A.** 47 % of control and 77 % of control

**Q.** How did the T/C (dose: 150.0 mg/kg/injection, schedule: Q04DX004 (sc), vehicle: saline with Tween-80) turn out when CN(C)C1C(=O)C(C(=O)NP(=O)(NCCCO)N(CCCl)CCCl)=C(O)C2(O)C(=O)C3=C(O)c4c(O)cccc4C(C)(O)C3CC12 (centres undefined) was run?
**A.** 51 % of control, 67 % of control, 87 % of control

**Q.** Which results are given for CNc1nc(N(C)C)nc(N(C)C)n1?
**A.** T/C (dose: 30.0 mg/kg/injection, schedule: Q01DX010 (sc), vehicle: water): 64 % of control, 84 % of control, 201 % of control; T/C (dose: 60.0 mg/kg/injection, schedule: Q01DX010 (sc), vehicle: water): 25 % of control, 90 % of control, 98 % of control; T/C (dose: 120.0 mg/kg/injection, schedule: Q01DX010 (sc), vehicle: water): 8 % of control and 38 % of control

**Q.** For CNC(=O)ON(C(C)=O)C(=O)NC, which T/C (dose: 100.0 mg/kg/injection, schedule: Q04DX004 (sc), vehicle: saline) is on record?
**A.** 40 % of control and 75 % of control

**Q.** With C[C@]12CCC(=O)C=C1CC[C@@H]1[C@@H]2[C@@H](O)C[C@@]2(C)[C@H]1CC[C@]2(O)C(=O)CO as the compound, how does the T/C (dose: 150.0 mg/kg/injection, schedule: Q04DX004 (sc), vehicle: Klucel (hydroxypropylcellulose) (HPC)) read?
**A.** 28 % of control, 49 % of control, 84 % of control

**Q.** What about the T/C (dose: 300.0 mg/kg/injection, schedule: Q04DX004 (sc), vehicle: Klucel (hydroxypropylcellulose) (HPC)) of the same compound?
**A.** 29 % of control and 68 % of control

**Q.** For Cc1ccccc1N(CC1CO1)CC1CO1 (centres undefined), which T/C (dose: 400.0 mg/kg/injection, schedule: Q01DX010 (sc), vehicle: suspension in saline) is on record?
**A.** 21 % of control and 112 % of control

**Q.** CCCCCCCCCCCCCCCC(=O)Nc1ccn(C2OC(CO)C(O)C2O)c(=O)n1 (centres undefined) was tested. Which T/C (dose: 112.5 mg/kg/injection, schedule: Q04DX004 (sc), vehicle: water) did it give?
**A.** 2 % of control, 32 % of control, 70 % of control

**Q.** And the T/C (dose: 225.0 mg/kg/injection, schedule: Q04DX004 (sc), vehicle: water)?
**A.** -27 % of control, 16 % of control, 25 % of control

**Q.** What about the T/C (dose: 450.0 mg/kg/injection, schedule: Q04DX004 (sc), vehicle: water) of the same compound?
**A.** -28 % of control and 3 % of control

**Q.** For Clc1ccc(CN2COc3c(ccc4cccnc34)C2)cc1Cl, which T/C (dose: 200.0 mg/kg/injection, schedule: Q01DX010 (sc), vehicle: saline with Tween-80) is on record?
**A.** 80 % of control, 113 % of control, 182 % of control

**Q.** And the T/C (dose: 800.0 mg/kg/injection, schedule: Q01DX010 (sc), vehicle: saline with Tween-80)?
**A.** 11 % of control, 50 % of control, 53 % of control

**Q.** What about the T/C (dose: 1600.0 mg/kg/injection, schedule: Q01DX010 (sc), vehicle: saline with Tween-80) of the same compound?
**A.** 41 % of control and 71 % of control

**Q.** With COC1=C(NC(C)=O)C(=O)c2nc(-c3nc(C(=O)O)c(C)c(-c4ccc(OC)c(OC)c4O)c3N)ccc2C1=O as the compound, how does the T/C (dose: 50.0 mg/kg/injection, schedule: Q04DX004 (sc), vehicle: Klucel (hydroxypropylcellulose) (HPC)) read?
**A.** 50 % of control, 73 % of control, 90 % of control

**Q.** What about the T/C [1] of the same compound?
**A.** 16 % of control, 75 % of control, 91 % of control

**Q.** And the T/C (dose: 200.0 mg/kg/injection, schedule: Q04DX004 (sc), vehicle: Klucel (hydroxypropylcellulose) (HPC))?
**A.** 16 % of control, 41 % of control, 96 % of control

**Q.** How did the T/C (dose: 25.0 mg/kg/injection, schedule: Q04DX004 (sc), vehicle: Klucel (hydroxypropylcellulose) (HPC)) turn out when CN(C)N=Nc1cccc(C(N)=O)c1 was run?
**A.** 72 % of control and 115 % of control

**Q.** And the T/C [1]?
**A.** 18 % of control and 102 % of control

**Q.** For O=C(N/N=C\c1cc(Br)cc(Br)c1O)N/N=C/c1cc(Br)cc(Br)c1O, which T/C (dose: 100.0 mg/kg/injection, schedule: Q01DX010 (sc), vehicle: saline with Tween-80) is on record?
**A.** 73 % of control and 106 % of control
